PubChem BioAssay AID1745853 (National Center for Advancing Translational Sciences (NCATS), 2022)
The list shows a part of the results. Shown are side measurements of this screen, not its main read-out; they come without a call.

Tests used:
Test in all cases: Primary Screen for Target Class Profiling of Small Molecule Inhibitors of Methyltransferases
[1] = biological target: Glycine N-methyltransferase (Homo sapiens) (UniProt Q14749); settings: purified enzyme, MTase-Glo SAH luminescence; measured here: GNMT inhibition; at 40 µM; stronger effect = lower value
Outline: (§1)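 Each enzyme was reacted with SAM and its substrate, with compounds tested once at 40 uM; SAH formed was read by MTase-Glo luminescence.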

[2] = biological target: Guanidinoacetate N-methyltransferase (Homo sapiens) (UniProt Q14353); settings: purified enzyme, MTase-Glo SAH luminescence; measured here: GAMT inhibition; at 40 µM; stronger effect = lower value
Outline: as §1

[3] = biological target: Histamine N-methyltransferase (Homo sapiens) (UniProt P50135); settings: purified enzyme, MTase-Glo SAH luminescence; measured here: HNMT inhibition; at 40 µM; stronger effect = lower value
Outline: as §1

[4] = biological target: Nicotinamide N-methyltransferase (Homo sapiens) (UniProt P40261); settings: purified enzyme, MTase-Glo SAH luminescence; measured here: NNMT inhibition; at 40 µM; stronger effect = lower value
Outline: as §1

[5] = biological target: Phenylethanolamine N-methyltransferase (Homo sapiens) (UniProt P11086); settings: purified enzyme, MTase-Glo SAH luminescence; measured here: PNMT inhibition; at 40 µM; stronger effect = lower value
Outline: as §1
% is scaled to controls: 0 for no effect and ±100 for the full control effect.

SMILES	activity change, negative = inhibition [1] [%]	activity change, negative = inhibition [2] [%]	activity change, negative = inhibition [3] [%]	activity change, negative = inhibition [4] [%]	activity change, negative = inhibition [5] [%]
CC1(C(=O)NC2CCCC2)Cn2cnc(C(=O)NCc3ccccc3F)c2C(=O)N1C1CC1 (stereo not drawn)	-9.07	2.91	-6.18	-9.5	-9.52
COc1cc(/C=C/C(=O)O[C@@H]2C[C@@](O)(C(=O)O)C[C@@H](O)[C@@H]2O)ccc1O	4.67	7.49	6.56	-4.61	7.01
COc1ccc(-c2cc3n(n2)CC(C)(C(=O)NC2CCCCC2)N(Cc2cccs2)C3=O)cc1 (stereo not drawn)	-7.44	-1.56	-6.19	-13.9	-10.1
O=C(Cn1cccc1-c1nc(-c2ccccc2)no1)N1CCN(c2ccccc2)CC1	0.22	-3.14	0.752	1.51	-2.01
CCOC(=O)c1cc2n(n1)CC(C)(C(=O)NC1CCC(C)CC1)N(c1cc(Cl)ccc1C)C2=O (stereo not drawn)	2.4	1.67	-6.13	-2.68	11.9
CC(C)C(=O)NCC(=O)N1CCC2(CC1)Nc1ccccc1NC2=O	-3.83	-5.73	-1.52	-11.6	-9.22
CC(C)O[C@@H]1O[C@H](CO)[C@@H](O)[C@H](O)[C@H]1O	-3.08	-5.39	2.61	-13.5	-12.5
Nc1c(Br)cc(Br)cc1CNC1CCC(O)CC1 (stereo not drawn)	-12.4	-7.47	-9.46	-35.6	-9.35
CC(C)CCN1C(=O)c2cc3ccccc3n2CC1(C)C(=O)NC1CCCCCC1 (stereo not drawn)	6.76	1.09	6.43	6.58	-3.75
Cc1cc(C(=O)N2CCn3nc(C(C)O)cc3C2)c2ccc(F)cc2n1 (stereo not drawn)	8.78	0.18	3.04	-6.85	0.123
N#Cc1ccc(Oc2ccc3c(c2)COB3O)cc1	-4.64	-0.385	8.68	-13.3	2.42
COc1ccc2cc3n(c2c1)CC(C)(C(=O)NC1CCCCCC1)N(CCN1CCCC1)C3=O (stereo not drawn)	3.44	5.08	-0.674	1.38	0.429
O=C(Cn1nc2n(Cc3ccc(F)cc3)c(=O)c3ccccc3n2c1=O)NCc1ccccc1	0.264	0	4.49	-0.332	-1.95
COc1ccc2cc3n(c2c1)CC(C)(C(=O)NCCCN1CC(C)CC(C)C1)N(C1CCCCC1)C3=O (stereo not drawn)	3.04	1.17	2.18	6.75	2.54
CC(C)Cn1c(=O)c2ccccc2n2c(CCC(=O)Nc3ccc(F)cc3)nnc12	-7.61	0.61	-3.31	-11.9	-8.95
CCn1c(=O)c2cc(C(N)=O)c(N)nc2n(C2CC2)c1=O		-2.57		-13.5	4.8
CCCCN1C(=O)c2cc3c(OC)ccc(OC)c3n2CC1(C)C(=O)NC1CCCC1 (stereo not drawn)	-4.32	0.618	5.16	3.55	0.221
